# According to the supplement of paper PMC8728848:
# The list shows a part of the results.
# B1: AAL (Aleuria aurantia), P18891 (protein)
# chain: PTEFLYTSKIAAISWAATGGRQQRVYFQDLNGKIREAQRGGDNPWTGGSSQNVIGEAKLFSPLAAVTWKSAQGIQIRVYCVNKDNILSEFVYDGSKWITGQLGSVGVKVGSNSKLAALQWGGSESAPPNIRVYYQKSNGSGSSIHEYVWSGKWTAGASFGSTVPGTGIGATAIGPGRLRIYYQATDNKIREHCWDSNSWYVGGFSASASAGVSIAAISWGSTPNIRVYWQKGREELYEAAYGGSWNTPGQIKDASRPTPSLPDTFIAANSSGNIDISVFFQASGVSLQQWQWISGKGWSIGAVVPTGTPAGW
# What was measured:
# Assay in all cases: glycan array binding signal (z-score within array); higher = stronger binding
# Settings in all cases: glycan notation: IUPAC condensed, linker removed
# [1] = biological target: Neu5Ac(a2-3)Gal(b1-4)[Fuc(a1-3)]GlcNAc(b1-6)[Neu5Ac(a2-3)Gal(b1-3)]GalNAc
# Summary of the method: (§1)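 Glycan array data came from 3228 arrays in the Consortium for Functional Glycomics database, and only arrays with an available protein sequence were kept. Glycan names were put into IUPAC-condensed notation, and columns mapping to the same glycan were averaged. The binding signal is a within-array Z-score, averaged across arrays of one protein sequence run at different concentrations or buffers and across linkers. A negative Z-score can be read as non-binding.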
# [2] = biological target: Neu5Ac(a2-3)Gal(b1-4)[Fuc(a1-3)]GlcNAc6S
# Summary of the method: as §1
# [3] = biological target: Neu5Ac(a2-3)Gal6S(b1-4)GlcNAc
# Summary of the method: as §1
# [4] = biological target: Neu5Ac(a2-3)Gal6S(b1-4)[Fuc(a1-3)]GlcNAc
# Summary of the method: as §1
# [5] = biological target: Neu5Ac(a2-3)GalNAc
# Summary of the method: as §1
# [6] = biological target: Neu5Ac(a2-3)GalNAc(b1-4)GlcNAc
# Summary of the method: as §1
# [7] = biological target: Neu5Ac(a2-3)[GalNAc(b1-4)]Gal(b1-4)Glc
# Summary of the method: as §1
# [8] = biological target: Neu5Ac(a2-3)[GalNAc(b1-4)]Gal(b1-4)GlcNAc
# Summary of the method: as §1
# [9] = biological target: Neu5Ac(a2-3)[GalNAc(b1-4)]Gal(b1-4)GlcNAc(b1-3)GalNAc
# Summary of the method: as §1
# [10] = biological target: Neu5Ac(a2-3)[Neu5Ac(a2-6)]GalNAc
# Summary of the method: as §1
# [11] = biological target: Neu5Ac(a2-6)Gal
# Summary of the method: as §1
# [12] = biological target: Neu5Ac(a2-6)Gal(b1-3)GlcNAc(b1-3)[Gal(b1-4)GlcNAc(b1-6)]Gal(b1-4)Glc
# Summary of the method: as §1
# [13] = biological target: Neu5Ac(a2-6)Gal(b1-4)Glc
# Summary of the method: as §1
# [14] = biological target: Neu5Ac(a2-6)Gal(b1-4)GlcNAc
# Summary of the method: as §1
# [15] = biological target: Neu5Ac(a2-6)Gal(b1-4)GlcNAc(b1-2)Man(a1-3)Man(b1-4)GlcNAc(b1-4)GlcNAc
# Summary of the method: as §1
# [16] = biological target: Neu5Ac(a2-6)Gal(b1-4)GlcNAc(b1-2)Man(a1-3)[Gal(b1-4)GlcNAc(b1-2)Man(a1-6)]Man(b1-4)GlcNAc(b1-4)GlcNAc
# Summary of the method: as §1
# [17] = biological target: Neu5Ac(a2-6)Gal(b1-4)GlcNAc(b1-2)Man(a1-3)[GlcNAc(b1-2)Man(a1-6)]Man(b1-4)GlcNAc(b1-4)GlcNAc
# Summary of the method: as §1
# [18] = biological target: Neu5Ac(a2-6)Gal(b1-4)GlcNAc(b1-2)Man(a1-3)[GlcNAc(b1-2)Man(b1-4)GlcNAc(b1-2)Man(a1-6)]Man(b1-4)GlcNAc(b1-4)GlcNAc
# Summary of the method: as §1
# [19] = biological target: Neu5Ac(a2-6)Gal(b1-4)GlcNAc(b1-2)Man(a1-3)[Man(a1-6)]Man(b1-4)GlcNAc(b1-4)GlcNAc
# Summary of the method: as §1
# [20] = biological target: Neu5Ac(a2-6)Gal(b1-4)GlcNAc(b1-2)Man(a1-3)[Neu5Ac(a2-6)Gal(b1-4)GlcNAc(b1-2)Man(a1-6)]Man(b1-4)GlcNAc(b1-4)GlcNAc
# Summary of the method: as §1
# [21] = biological target: Neu5Ac(a2-6)Gal(b1-4)GlcNAc(b1-2)Man(a1-6)Man(b1-4)GlcNAc(b1-4)GlcNAc
# Summary of the method: as §1
# [22] = biological target: Neu5Ac(a2-6)Gal(b1-4)GlcNAc(b1-2)Man(a1-6)[Gal(b1-4)GlcNAc(b1-2)Man(a1-3)]Man(b1-4)GlcNAc(b1-4)GlcNAc
# Summary of the method: as §1
# [23] = biological target: Neu5Ac(a2-6)Gal(b1-4)GlcNAc(b1-2)Man(a1-6)[GlcNAc(b1-2)Man(a1-3)]Man(b1-4)GlcNAc(b1-4)GlcNAc
# Summary of the method: as §1
# [24] = biological target: Neu5Ac(a2-6)Gal(b1-4)GlcNAc(b1-2)Man(a1-6)[Man(a1-3)]Man(b1-4)GlcNAc(b1-4)GlcNAc
# Summary of the method: as §1
# [25] = biological target: Neu5Ac(a2-6)Gal(b1-4)GlcNAc(b1-3)Gal(b1-3)GlcNAc
# Summary of the method: as §1
# [26] = biological target: Neu5Ac(a2-6)Gal(b1-4)GlcNAc(b1-3)Gal(b1-4)GlcNAc
# Summary of the method: as §1
# [27] = biological target: Neu5Ac(a2-6)Gal(b1-4)GlcNAc(b1-3)Gal(b1-4)GlcNAc(b1-3)Gal(b1-4)GlcNAc
# Summary of the method: as §1
# [28] = biological target: Neu5Ac(a2-6)Gal(b1-4)GlcNAc(b1-3)Gal(b1-4)[Fuc(a1-3)]GlcNAc(b1-3)Gal(b1-4)[Fuc(a1-3)]GlcNAc
# Summary of the method: as §1
# [29] = biological target: Neu5Ac(a2-6)Gal(b1-4)GlcNAc(b1-3)GalNAc
# Summary of the method: as §1
# [30] = biological target: Neu5Ac(a2-6)Gal(b1-4)GlcNAc6S
# Summary of the method: as §1
# [31] = biological target: Neu5Ac(a2-6)GalNAc
# Summary of the method: as §1
# [32] = biological target: Neu5Ac(a2-6)GalNAc(b1-4)GlcNAc
# Summary of the method: as §1
# [33] = biological target: Neu5Ac(a2-6)GlcNAc(b1-4)GlcNAc
# Summary of the method: as §1
# [34] = biological target: Neu5Ac(a2-6)GlcNAc(b1-4)GlcNAc(b1-4)GlcNAc
# Summary of the method: as §1
# [35] = biological target: Neu5Ac(a2-8)Neu5Ac
# Summary of the method: as §1
# [36] = biological target: Neu5Ac(a2-8)Neu5Ac(a2-3)Gal(b1-4)Glc
# Summary of the method: as §1
# [37] = biological target: Neu5Ac(a2-8)Neu5Ac(a2-3)[Gal(b1-3)GalNAc(b1-4)]Gal(b1-4)Glc
# Summary of the method: as §1
# [38] = biological target: Neu5Ac(a2-8)Neu5Ac(a2-3)[GalNAc(b1-4)]Gal(b1-4)Glc
# Summary of the method: as §1
# [39] = biological target: Neu5Ac(a2-8)Neu5Ac(a2-8)Neu5Ac
# Summary of the method: as §1
# [40] = biological target: Neu5Ac(a2-8)Neu5Ac(a2-8)Neu5Ac(a2-3)Gal(b1-4)Glc
# Summary of the method: as §1
# [41] = biological target: Neu5Ac(a2-8)Neu5Ac(a2-8)Neu5Ac(a2-3)[GalNAc(b1-4)]Gal(b1-4)Glc
# Summary of the method: as §1
# [42] = biological target: Neu5Ac(a2-8)Neu5Ac(a2-8)Neu5Ac(a2-8)Neu5Ac(a2-3)[GalNAc(b1-4)]Gal(b1-4)Glc
# Summary of the method: as §1
# [43] = biological target: Neu5Ac(b1-6)GalNAc
# Summary of the method: as §1
# [44] = biological target: Neu5Ac(b2-6)Gal(b1-4)GlcNAc
# Summary of the method: as §1
# [45] = biological target: Neu5Ac(b2-6)GalNAc
# Summary of the method: as §1
# [46] = biological target: Neu5Ac9Ac(a2-3)Gal(b1-3)GlcNAc
# Summary of the method: as §1
# [47] = biological target: Neu5Ac9Ac(a2-3)Gal(b1-4)GlcNAc
# Summary of the method: as §1
# [48] = biological target: Neu5Ac9Ac(a2-6)Gal(b1-4)GlcNAc
# Summary of the method: as §1
# [49] = biological target: Neu5Gc(a2-3)Gal(b1-3)GlcNAc
# Summary of the method: as §1
# [50] = biological target: Neu5Gc(a2-3)Gal(b1-3)[Fuc(a1-4)]GlcNAc
# Summary of the method: as §1
# [51] = biological target: Neu5Gc(a2-3)Gal(b1-4)Glc
# Summary of the method: as §1
# [52] = biological target: Neu5Gc(a2-3)Gal(b1-4)GlcNAc
# Summary of the method: as §1
# [53] = biological target: Neu5Gc(a2-3)Gal(b1-4)[Fuc(a1-3)]GlcNAc
# Summary of the method: as §1
# [54] = biological target: Neu5Gc(a2-3)Gal(b1-4)[Fuc(a1-4)]GlcNAc
# Summary of the method: as §1
# [55] = biological target: Neu5Gc(a2-6)Gal(b1-4)GlcNAc
# Summary of the method: as §1
# [56] = biological target: Neu5Gc(a2-6)GalNAc
# Summary of the method: as §1
# [57] = biological target: Neu5Gc(b2-6)Gal(b1-4)GlcNAc
# Summary of the method: as §1
binder,measurement,setting,value
B1,glycan array binding signal (z-score),[1],0.045
same,glycan array binding signal (z-score),[2],1.59
same,glycan array binding signal (z-score),[3],1.5
same,glycan array binding signal (z-score),[4],1.99
same,glycan array binding signal (z-score),[5],-0.531
same,glycan array binding signal (z-score),[6],-0.496
same,glycan array binding signal (z-score),[7],-0.5
same,glycan array binding signal (z-score),[8],-0.509
same,glycan array binding signal (z-score),[9],-0.431
same,glycan array binding signal (z-score),[10],-0.551
same,glycan array binding signal (z-score),[11],-0.481
same,glycan array binding signal (z-score),[12],-0.426
same,glycan array binding signal (z-score),[13],-0.48
same,glycan array binding signal (z-score),[14],-0.506
same,glycan array binding signal (z-score),[15],-0.425
same,glycan array binding signal (z-score),[16],-0.423
same,glycan array binding signal (z-score),[17],-0.414
same,glycan array binding signal (z-score),[18],-0.434
same,glycan array binding signal (z-score),[19],-0.442
same,glycan array binding signal (z-score),[20],-0.469
same,glycan array binding signal (z-score),[21],-0.432
same,glycan array binding signal (z-score),[22],-0.434
same,glycan array binding signal (z-score),[23],-0.423
same,glycan array binding signal (z-score),[24],-0.431
same,glycan array binding signal (z-score),[25],-0.424
same,glycan array binding signal (z-score),[26],-0.505
same,glycan array binding signal (z-score),[27],-0.427
same,glycan array binding signal (z-score),[28],1.28
same,glycan array binding signal (z-score),[29],-0.392
same,glycan array binding signal (z-score),[30],-0.453
same,glycan array binding signal (z-score),[31],-0.507
same,glycan array binding signal (z-score),[32],-0.502
same,glycan array binding signal (z-score),[33],-0.432
same,glycan array binding signal (z-score),[34],-0.447
same,glycan array binding signal (z-score),[35],-0.473
same,glycan array binding signal (z-score),[36],-0.543
same,glycan array binding signal (z-score),[37],-0.423
same,glycan array binding signal (z-score),[38],-0.499
same,glycan array binding signal (z-score),[39],-0.526
same,glycan array binding signal (z-score),[40],-0.516
same,glycan array binding signal (z-score),[41],-0.505
same,glycan array binding signal (z-score),[42],-0.493
same,glycan array binding signal (z-score),[43],-0.567
same,glycan array binding signal (z-score),[44],-0.478
same,glycan array binding signal (z-score),[45],-0.441
same,glycan array binding signal (z-score),[46],-0.444
same,glycan array binding signal (z-score),[47],-0.441
same,glycan array binding signal (z-score),[48],-0.522
same,glycan array binding signal (z-score),[49],-0.512
same,glycan array binding signal (z-score),[50],1.09
same,glycan array binding signal (z-score),[51],-0.487
same,glycan array binding signal (z-score),[52],-0.496
same,glycan array binding signal (z-score),[53],0.903
same,glycan array binding signal (z-score),[54],1.6
same,glycan array binding signal (z-score),[55],-0.471
same,glycan array binding signal (z-score),[56],-0.478
same,glycan array binding signal (z-score),[57],-0.404
